# Test results: the supplement of paper PMC8728848
# Shown is part of a subset that was picked to be rich in the strongest signals.
# How the values were obtained:
# Assay in all cases: glycan array binding signal (z-score within array); higher = stronger binding
# Details in all cases: glycan notation: IUPAC condensed, linker removed
# Fuc(a1-2)Gal(b1-4)GlcNAc = biological target: Fuc(a1-2)Gal(b1-4)GlcNAc
# Method in brief: (§1)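 The Consortium for Functional Glycomics database supplied 3228 glycan arrays, of which those lacking an available protein sequence were dropped. The binding signal, a within-array Z-score, was averaged across arrays of the same protein sequence and across linkers. Negative scores can be read as non-binding.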
# [1] = biological target: Fuc(a1-2)[Gal(a1-4)]Gal(b1-4)GlcNAc
# Method in brief: as §1
# [2] = biological target: Fuc(a1-3)[Gal3S(b1-4)]GlcNAc
# Method in brief: as §1
# Gal(a1-2)Gal = biological target: Gal(a1-2)Gal
# Method in brief: as §1
# Gal(a1-3)Gal(b1-3)GlcNAc = biological target: Gal(a1-3)Gal(b1-3)GlcNAc
# Method in brief: as §1
# [3] = biological target: Gal(a1-3)[Gal(a1-4)]Gal(b1-4)GlcNAc
# Method in brief: as §1
# [4] = biological target: Gal(b1-3)GlcNAc(b1-3)Gal(b1-4)Glc
# Method in brief: as §1
# [5] = biological target: Gal(b1-3)[Fuc(a1-4)]GlcNAc(b1-3)Gal(b1-3)[Fuc(a1-4)]GlcNAc
# Method in brief: as §1
# [6] = biological target: Gal(b1-3)[Neu5Ac(a2-6)]GlcNAc(b1-6)Gal(b1-4)Glc
# Method in brief: as §1
# Gal(b1-4)Glc6S = biological target: Gal(b1-4)Glc6S
# Method in brief: as §1
# Gal3S(b1-3)GlcNAc = biological target: Gal3S(b1-3)GlcNAc
# Method in brief: as §1
# Gal3S(b1-4)Glc = biological target: Gal3S(b1-4)Glc
# Method in brief: as §1
# Gal3S4S(b1-4)GlcNAc = biological target: Gal3S4S(b1-4)GlcNAc
# Method in brief: as §1
# Gal4S6S(b1-4)GlcNAc = biological target: Gal4S6S(b1-4)GlcNAc
# Method in brief: as §1
# GalNAc(a1-3)GalNAc = biological target: GalNAc(a1-3)GalNAc
# Method in brief: as §1
# Glc(a1-6)Glc(a1-6)Glc = biological target: Glc(a1-6)Glc(a1-6)Glc
# Method in brief: as §1
# [7] = biological target: GlcNAc(b1-3)Gal(b1-3)GalNAc
# Method in brief: as §1
# [8] = biological target: GlcNAc(b1-4)GlcNAc(b1-4)GlcNAc
# Method in brief: as §1
# [9] = biological target: GlcNAc(b1-4)[GlcNAc(b1-6)]GalNAc
# Method in brief: as §1
# Man(a1-3)[Man(a1-6)]Man = biological target: Man(a1-3)[Man(a1-6)]Man
# Method in brief: as §1
# Man(b1-4)GlcNAc = biological target: Man(b1-4)GlcNAc
# Method in brief: as §1
# [10] = biological target: Neu5Ac(a2-3)Gal(b1-3)GalNAc(b1-3)Gal(a1-4)Gal(b1-4)Glc
# Method in brief: as §1
# [11] = biological target: Neu5Ac(a2-3)Gal6S(b1-4)GlcNAc
# Method in brief: as §1
# [12] = biological target: Neu5Ac(a2-3)GalNAc(b1-4)GlcNAc
# Method in brief: as §1
# [13] = biological target: Neu5Ac(a2-3)[GalNAc(b1-4)]Gal(b1-4)GlcNAc
# Method in brief: as §1
# Neu5Ac(a2-6)Gal(b1-4)Glc = biological target: Neu5Ac(a2-6)Gal(b1-4)Glc
# Method in brief: as §1
# [14] = biological target: Neu5Gc(a2-3)Gal(b1-3)[Fuc(a1-4)]GlcNAc
# Method in brief: as §1
binder,measurement,setting,value
"Properdin (Homo sapiens), P27918 (protein) MITEGAQAPRLLLPPLLLLLTLPATGSDPVLCFTQYEESSGKCKGLLGGGVSVEDCCLNTAFAYQKRSGGLCQPCRSPRWSLWSTWAPCSVTCSEGSQLRYRRCVGWNGQCSGKVAPGTLEWQLQACEDQQCCPEMGGWSGWGPWEPCSVTCSKGTRTRRRACNHPAPKCGGHCPGQAQESEACDTQQVCPTHGAWATWGPWTPCSASCHGGPHEPKETRSRKCSAPEPSQKPPGKPCPGLAYEQRRCTGLPPCPVAGGWGPWGPVSPCPVTCGLGQTMEQRTCNHPVPQHGGPFCAGDATRTHICNTAVPCPVDGEWDSWGEWSPCIRRNMKSISCQEIPGQQSRGRTCRGRKFDGHRCAGQQQDIRHCYSIQHCPLKGSWSEWSTWGLCMPPCGPNPTRARQRLCTPLLPKYPPTVSMVEGQGEKNVTFWGRPLPRCEELQGQKLVVEEKRPCLHVPACKDPEEEEL",glycan array binding signal (z-score),Fuc(a1-2)Gal(b1-4)GlcNAc,-0.53
same,glycan array binding signal (z-score),[1],3.96
same,glycan array binding signal (z-score),[2],-0.582
same,glycan array binding signal (z-score),Gal(a1-2)Gal,1.18
same,glycan array binding signal (z-score),Gal(a1-3)Gal(b1-3)GlcNAc,0.292
same,glycan array binding signal (z-score),[3],3.93
same,glycan array binding signal (z-score),[4],4.5
same,glycan array binding signal (z-score),[5],-0.389
same,glycan array binding signal (z-score),[6],3.63
same,glycan array binding signal (z-score),Gal(b1-4)Glc6S,1.92
same,glycan array binding signal (z-score),Gal3S(b1-3)GlcNAc,-0.079
same,glycan array binding signal (z-score),Gal3S(b1-4)Glc,-0.431
same,glycan array binding signal (z-score),Gal3S4S(b1-4)GlcNAc,-0.477
same,glycan array binding signal (z-score),Gal4S6S(b1-4)GlcNAc,-0.499
same,glycan array binding signal (z-score),GalNAc(a1-3)GalNAc,0.277
same,glycan array binding signal (z-score),Glc(a1-6)Glc(a1-6)Glc,3.84
same,glycan array binding signal (z-score),[7],-0.322
same,glycan array binding signal (z-score),[8],1.91
same,glycan array binding signal (z-score),[9],1.04
same,glycan array binding signal (z-score),Man(a1-3)[Man(a1-6)]Man,-0.112
same,glycan array binding signal (z-score),Man(b1-4)GlcNAc,-0.249
same,glycan array binding signal (z-score),[10],0.235
same,glycan array binding signal (z-score),[11],-0.45
same,glycan array binding signal (z-score),[12],-0.424
same,glycan array binding signal (z-score),[13],-0.417
same,glycan array binding signal (z-score),Neu5Ac(a2-6)Gal(b1-4)Glc,0.059
same,glycan array binding signal (z-score),[14],-0.589
